Hit rate of the full screen: of about 48,000 compounds, about 120 (0.25%) were called active. Roughly 4% stayed inconclusive and do not appear here. Calls come from the whole dose curve; as a rule, active = well fitted activation curve with a large enough effect; inconclusive = small, poorly fitted or top-dose-only effect, or another doubt; inactive = no such curve, though single readings can be large or run the other way. The list shows a part of the results.

The test is described as follows: Primary qHTS for Identification of Small Molecule Activators of Huntingtin-Antisense Promoter Activity. Note: nearly all actives have a fitted effect of over 55% in size. Particulars: HEK293 HTT-AS promoter firefly luciferase reporter, 24 h; series mostly up to 57.5 µM; activity change, positive = activation: at the top concentration. The method in brief: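 Luminescence was read after Dual-Glo reagent and a 10 min room-temperature incubation. Values were normalized to vehicle (0% activity) and zero RLU (-100% activity). Reporter HEK293 cells had been exposed to compounds (up to 57.5 uM final) for 24 h.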
(In general: Quantitative high-throughput screening tests each substance at several concentrations.)
Consider `Cc1ccc(OCC(=O)Nc2ccc(OCc3cc(=O)n4cccc(C)c4n3)cc2)cc1C`, for which the “activity change, positive = activation” value is inactive: -8.78%.
`COc1ccc(CCNC(=O)Cc2c(C)c3c(cc(C)c4c(C)coc43)oc2=O)cc1OC`: the “activity change, positive = activation” value is inactive: -12.2%.
On to `CCN(C(=O)C(=O)Nc1ccc2nc3n(c(=O)c2c1)CCCCC3)c1ccc(F)cc1`, for which the “activity change, positive = activation” value was inactive: -1.5%.
As to `COc1ccc2c(CNCc3ccc(C)o3)c(C(=O)O)n(Cc3ccccc3C)c2c1`, the “activity change, positive = activation” value is inactive: -3.87%.
For `CCN(c1ccccc1)C(CNS(=O)(=O)c1ccccc1)c1ccccc1` (centres undefined), the “activity change, positive = activation” value was inactive: -36.2%.
Regarding `COc1ccc(CCNC(=O)c2ccc3c(c2)CCN3S(C)(=O)=O)cc1`, the “activity change, positive = activation” value is inactive: -8.51%.
For the compound `Cc1c(C(=O)N(Cc2ccc(N(C)C)cc2)C2CCS(=O)(=O)C2)oc2ccccc12` (centres undefined), the “activity change, positive = activation” value is inactive: -1.12%.
On to `Cc1ccc2sc(N(Cc3cccnc3)C(=O)CCOc3ccccc3)nc2c1C`, for which the “activity change, positive = activation” value is inactive: -18.7%.
On to `O=C(O)CCCCCCCC(=O)O`, for which the “activity change, positive = activation” value was inactive: -1.19%.
Consider `COc1cc(C(=O)CC2(O)C(=O)N(Cc3ccccc3Cl)c3ccccc32)cc(OC)c1OC` (centres undefined), for which the “activity change, positive = activation” value was inactive: -33.5%.
In the case of `COc1ccc(OC)c(C2NC(=O)NC(C)=C2C(=O)Nc2cc(C)cc(C)c2)c1` (centres undefined), the “activity change, positive = activation” value was inactive: -14.1%.
In the case of `O=C(c1ccc2c(c1)N(Cc1ccccc1)C(=O)c1ccccc1S2(=O)=O)N1CCN(c2ccccc2)CC1`, the “activity change, positive = activation” value is inactive: -19%.
For the compound `Cc1ccccc1-c1nc(CS(=O)CC(=O)N2CCN(c3cc(Cl)ccc3C)CC2)c(C)o1` (centres undefined), the “activity change, positive = activation” value is inactive: -44.9%.
On to `CCC(=O)N1c2ccccc2CC1C(=O)NCc1cccc(C)c1` (centres undefined), for which the “activity change, positive = activation” value is inactive: -10.6%.
For `CCN(CC)CCCNC(=O)Cn1nc(C)n2c(cc3sccc32)c1=O` the value was inactive: -13.3%; for `Cc1ccc(C(=O)c2oc3ccccc3c2NC(=O)Cc2coc3cc(C)ccc23)cc1`, inactive: -0.689%; for `COc1ccc(CCNC(=O)Cn2c(=O)n(-c3ccc(C)c(C)c3)c(=O)c3c(C)c(C)sc32)cc1OC`, inactive: 10.3%.
The value for `COc1ccc(Cn2nnc3c(=O)[nH]c(C4CCCN(C(=O)c5ccc(C)cc5)C4)nc32)cc1` (centres undefined) was inactive: -18.4%.
For the compound `CCCCc1ccc(NC(=O)Cn2nnc3sc4c(c3c2=O)CCC(C)C4)cc1` (centres undefined), the “activity change, positive = activation” value was inactive: -17.5%.
For `CCOc1cccc(C2Nc3ccccc3-c3cc(C)nn32)c1O` (centres undefined) the value was inactive: 12.9%; for `CCc1ccccc1NC(=O)Cn1ccn(-c2cc(C)cc(C)c2)c(=O)c1=O`, inactive: -74.8%.
Consider `COc1ccc(NC(=O)c2ccc3oc(=O)c(S(=O)(=O)c4ccc(C)cc4)cc3c2)cc1OC`, for which the “activity change, positive = activation” value was inactive: 0%.
For `Cc1nn(S(=O)(=O)c2ccccc2)c(C)c1S(=O)(=O)N1CCC(C)CC1`, the “activity change, positive = activation” value was inactive: -9.71%.
As to `COc1ccc(OC)c(C(=O)c2c(N)c(-c3nc(-c4ccc(C)c(C)c4)cs3)c3ccccn23)c1`, the “activity change, positive = activation” value was inactive: -2.1%.
Regarding `Clc1cccc(CSc2nncn3c2cc2sccc23)c1`, the “activity change, positive = activation” value is inactive: -7.07%.
Take `Cc1ccc2oc(=O)c3cc(C(=O)Nc4ccc(F)cc4F)sc3c2c1`: the “activity change, positive = activation” value was inactive: 5.03%.
For the compound `COc1ccc(CCNC(=O)c2ccc(Cn3c(=O)c4ccccc4n(Cc4cc(C)ccc4C)c3=O)cc2)cc1OC`, the “activity change, positive = activation” value is inactive: -1.26%.
On to `Fc1ccc(Nc2nc3ccccc3c3nncn23)c(Cl)c1`, for which the “activity change, positive = activation” value is inactive: -1.15%.
In the case of `Cc1ccc(NC(=O)c2oc3ccc(S(=O)(=O)N4CCCCCC4)cc3c2C)cc1Cl`, the “activity change, positive = activation” value is inactive: 4.46%.
As for `CC(C)CSc1nnc(-c2ccccc2)c(-c2ccccc2)n1`, the activity change, positive = activation is inactive: -0.66% [at 11.5 µM, percent change from vehicle, -100% = no light].
For `CCCN1C(=O)c2[nH]nc(-c3ccccc3O)c2C1c1ccc(OCc2ccccc2)c(OCC)c1` (centres undefined), the “activity change, positive = activation” value was inactive: -24.1%.
As to `COc1ccc(C)c2sc(N(Cc3cccnc3)C(C)=O)nc12`, the “activity change, positive = activation” value is inactive: -16.1%.
In the case of `Cc1ccc(Cl)cc1NC(=O)CN1C(=O)c2cccc3cccc1c23`, the “activity change, positive = activation” value is inactive: -22.3%.
For `COc1ccccc1OCCn1c(NC(=O)c2ccc(Cl)cc2)nc2ccccc21` the value was inactive: 19.1%; for `COc1ccc(-c2nc3ccccc3s2)cc1NC(=O)COc1ccccc1C`, inactive: -0.0885%.
`O=C(Nc1c(C(=O)N2CCN(c3ccc(F)cc3)CC2)oc2ccccc12)c1c(F)cccc1F`: the “activity change, positive = activation” value was inactive: -31.9%.
Consider `Cc1nnc(NC(=O)CSc2nc3c([nH]c4ccccc43)c(=O)n2-c2ccccc2)s1`, for which the “activity change, positive = activation” value was inactive: -14.9%.
The value for `CC(O)CN(CCN(CC(C)O)CC(C)O)CC(C)O` (centres undefined) was inactive: -0.607%; that for `COc1ccc(C2CC(=O)c3cc(-c4nc(-c5cccc([N+](=O)[O-])c5)cs4)c(=O)n(-c4ccc(C)c(C)c4)c3C2)cc1` (centres undefined) was inactive: -6.17%; that for `CCC(Sc1nc2ccccc2c2nc(CCn3cncc3C)nn12)C(=O)Nc1cccc(OC)c1` (centres undefined) was inactive: -8.67%.
With `CC(C)Oc1ccc(C(=O)Nc2ccc3c(c2)CCCN3C(=O)c2cccs2)cc1`, the “activity change, positive = activation” value is inactive: -45.4%.
With `Cc1sccc1Br`, the “activity change, positive = activation” value was inactive: -6.16%.
For `CCC1CCCCN1CCCNC(=O)CN1C(=O)c2cccnc2Oc2ccc(Cl)cc21` (centres undefined) the value was inactive: -6.92%.
In the case of `COc1ccc(Cn2c(CNC(=O)c3ccc(N(C)C)cc3)nc3cccnc32)cc1`, the “activity change, positive = activation” value was inactive: -18.9%.
For `O=C(Cn1cc(SCc2ccc(C(F)(F)F)cc2)c2ccccc21)N1CCCCCC1`, the “activity change, positive = activation” value was inactive: -9.21%.
`COc1ccc(NC(=O)CSc2nnc(-c3ccc(OC)cc3)s2)cc1`: the “activity change, positive = activation” value was inactive: -45.3%.
Turning to `COc1cccc(C(c2sc3nc(-c4ccco4)nn3c2O)N2CCOCC2)c1` (centres undefined), the “activity change, positive = activation” value was inactive: -6.64%.
`Cc1ccc(Nc2nc3ccc(C)cc3nc2-n2nc(C)cc2C)c(C)c1`: the “activity change, positive = activation” value was inactive: 0.437%.
On to `CC(C)C(=O)Nc1nnc(S(=O)(=O)N2CCCCCC2)s1`, for which the “activity change, positive = activation” value is inactive: -6.43%.

The record behind these values is PubChem BioAssay AID1508624 (National Center for Advancing Translational Sciences (NCATS), 2021).
